Test results published in the supplement of paper PMC4166925.
± gives the standard deviation of the averaged measurements. Whole data set: some 33,000 sequences, median “E-score (dimensionless, -0.5 to 0.5)” near -0.046, cut for the highest 2% near 0.36. The list shows a part of the results.

test system: T1, SpTbr T-box DNA-binding domain (GST fusion); assay: PBM E-score of 8-mer (E-score (dimensionless, -0.5 to 0.5)); Tbr is Tbrain of the sea star Patiria miniata (Pm) or the sea urchin Strongylocentrotus purpuratus (Sp); higher = stronger binding preference; most listed sequences are background and not binding sites; conditions: the construct has about 5 more residues each side
T1 sequence: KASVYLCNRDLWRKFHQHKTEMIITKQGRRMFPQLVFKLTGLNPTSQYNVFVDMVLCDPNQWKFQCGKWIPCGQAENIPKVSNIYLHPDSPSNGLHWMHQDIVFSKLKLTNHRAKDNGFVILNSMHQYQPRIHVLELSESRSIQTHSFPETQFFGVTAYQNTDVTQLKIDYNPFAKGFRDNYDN
In short: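 Each ungapped 8-mer received an enrichment E-score from the Universal PBM Analysis Suite, averaged over duplicate arrays. The proteins were Tbr T-box DNA-binding domains, covering the whole T-box plus about five flanking residues, fused to GST and expressed in BL21 E. coli at 20 °C before glutathione affinity purification. Universal Agilent oligonucleotide arrays were made double-stranded by primer extension and incubated with 200 nM protein in PBS (pH 7.5). The arrays were then scanned and quantified, and every 8-mer was scored from probe intensities.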

In order of rising “PBM E-score of 8-mer” value:
1. CCGAGCGG  -0.317 ± 0.046
2. AGACTAAG  -0.306 ± 0.022
3. CTGAATCC  -0.281 ± 0.056
4. CGGAACCC  -0.267 ± 0.031
5. AGCCTCAG  -0.26 ± 0.0055
6. ATTCTGAA  -0.26 ± 0.051
7. AAGGAGGA  -0.255 ± 0.078
8. GATCCCAA  -0.242 ± 0.0063
9. AACGTCTA  -0.237 ± 0.092
10. GTAGAGGA  -0.227 ± 0.076
11. ACTTATCC  -0.222 ± 0.015
12. GCATGGGA  -0.2057 ± 0.0015
13. CGACTTCC  -0.19 ± 0.067
14. AGACAAGG  -0.189 ± 0.016
15. GGATGAGA  -0.189 ± 0.0033
16. CATACTGA  -0.182 ± 0.06
17. GAGCTTGA  -0.181 ± 0.062
18. AGGAATCG  -0.166 ± 0.059
19. GGAAAATA  -0.155 ± 0.034
20. ACTATGAA  -0.145 ± 0.031
21. CATGAGGG  -0.14 ± 0.053
22. AAAGATTG  -0.138 ± 0.1
23. GCCTGGAC  -0.13 ± 0.055
24. AAGTTTAG  -0.126 ± 0.041
25. ACCCTCGG  -0.124 ± 0.045
26. AGGGTTTG  -0.124 ± 0.1
27. GAAGGTTA  -0.12 ± 0.012
28. CCTATTGC  -0.11 ± 0.032
29. CGGTTTGA  -0.103 ± 0.098
30. ATGGCGGG  -0.102 ± 0.061
31. CCCTTGAG  -0.102 ± 0.028
32. GCCAGAGA  -0.0994 ± 0.031
33. CCACATGC  -0.0984 ± 0.016
34. ACTTAGGG  -0.0977 ± 0.044
35. AAATACCT  -0.0934 ± 0.019
36. AGTTGAGG  -0.0911 ± 0.054
37. ACACTGGA  -0.0769 ± 0.013
38. ATGGCAGG  -0.0716 ± 0.0039
39. GAGTTCAA  -0.0639 ± 0.013
40. ATAAAACA  -0.0605 ± 0.11
41. CCATAGCA  -0.0599 ± 0.038
42. GAGCCTGA  -0.0563 ± 0.0068
43. AGGCGATC  -0.0489 ± 0.0021
44. GCTGTATA  -0.0459 ± 0.019
45. CCATAACG  -0.0454 ± 0.011
46. AAATACTC  -0.0243 ± 0.0069
47. CATTTGTC  -0.0214 ± 0.013
48. AGAGAAGG  -0.0187 ± 0.024
49. GGGCGGCA  -0.0125 ± 0.018
50. AAGGTTTC  0.00098 ± 0.069
51. GACATACA  0.00383 ± 0.015
52. GTCATTTA  0.00598 ± 0.011
53. CGGCAGCA  0.0185 ± 0.12
54. CGTGGTGC  0.0202 ± 0.019
55. ATAACTTC  0.0225 ± 0.0034
56. ATTGAATC  0.0273 ± 0.028
57. AATCAGCG  0.0273 ± 0.076
58. GCCTTTCA  0.0318 ± 0.044
59. CGCTAGAA  0.0429 ± 0.024
60. CGAGAGGC  0.0435 ± 0.0085
61. AAATTCTC  0.0483 ± 0.096
62. AAGATCCC  0.0611 ± 0.027
63. ACCTCGTA  0.0632 ± 0.0068
64. TCGTGGCA  0.0699 ± 0.038
65. ACTAACTG  0.0784 ± 0.08
66. CGGTTTGC  0.0866 ± 0.036
67. GCCACTGA  0.0996 ± 0.035
68. GCGCTTAA  0.101 ± 0.028
69. CGACCTGA  0.103 ± 0.0024
70. GCGTCTAA  0.104 ± 0.11
71. CGCAGCTC  0.113 ± 0.016
72. ATGGGCGA  0.118 ± 0.042
73. GGAGTCAC  0.128 ± 0.0043
74. ATTGGTGA  0.142 ± 0.059
75. CATGGTGC  0.145 ± 0.014
76. CACCGCGC  0.149 ± 0.075
77. ACCTACCA  0.157 ± 0.046
78. GTCCGCAA  0.157 ± 0.016
79. ATTACACA  0.157 ± 0.036
80. AACGCCGT  0.211 ± 0.029
81. AGGTCGCG  0.26 ± 0.015
82. ACCTGCTA  0.275 ± 0.02
83. ACCGCGAT  0.286 ± 0.0029
84. ATTTCACG  0.293 ± 0.04
85. CGCCACAC  0.3647 ± 0.0013
86. ATCACACG  0.417 ± 0.027
